Sequences with one replicate were seen in a single cluster, so their values are uncertain.
Test system: ATP
Assay: switch fluorescence ratio, 500 uM ATP over buffer (Cy3 cluster intensity, sum of 5 cycles each) (fold (ratio)); higher = stronger signal-on switching upon ATP binding; sequences stand for … in TCGTCGGCAGCGTCAGATGTGTATAAGAGACAGTTTTTTTTTTTTTTTTTTTTTTTTT…TC
Conditions: aptamer strand: ATP DNA aptamer (quencher-CACCTGGGGGAGTATTGCGGAGGAAGG + anchor), 100 nM annealed; ATP concentration: 500 uM; one replicate
How it was run: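 Values give the fluorescence ratio for each switch-domain sequence, averaged from per-cluster ratios of summed target-cycle to summed buffer-cycle Cy3 intensity. The Cy3-labelled switching-strand clusters sat on a modified Illumina MiSeq flow-cell, were annealed to 100 nM quencher-labelled ATP aptamer, and were imaged in selection buffer, then after 15 min with 500 uM ATP at 22 °C. Five cycles ran with NaOH stripping and re-annealing between them, and clusters outside 100-1000 RFU were excluded.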
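Further: ATP exposure 15 min at 22 °C before imaging.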

Sequence	switch fluorescence ratio
TTGAAAAGGC	1
TTAACTTAAA	0.974
CGCATTTCTG	1.1
TTTTCGCGAA	1.05
ATCTCAGGCA	1.02
CTGCGATGGT	1.15
GTAGCGAGGT	1.07
ATTATCCTGC	1.02
TATGACGATG	0.982
CGTAATCAAC	1.72
CGGTGGGTCA	0.97
CGGCGGGGTC	0.983
GTCGACACTG	1.02
GGGGTTATA	1.01
GTGACACGTT	1.01
CAGCTGGTTG	0.987
TGAATGTCAC	1.02
CAGAGTGTTT	0.988
CAAGCAAGT	1.19
GTATTGGCAA	1
GCCCGCAGCG	1.48
GCGCCTGTTG	1
GTGAGGCATT	1.13
TACTAGGGCT	1.04
CCAGAGTAGC	1.14

Sequence	switch fluorescence ratio
GAACGGCTAT	1.03
CACGGTGTGG	0.992
TTAGTCGATC	1.05
GGCGGAGGAG	0.985
TCCTAGATAT	1.02
GAGATGGTGT	1.03
TAAAGCGG	0.988
TCTTATAAAT	0.996
CGCGTACGCA	0.985
ATATCGGTA	0.994
TGAATGCAGT	1.04
AGTGTCGTTA	1.02
TGTAAGGGGA	1.01
ATGGATGAAG	0.973
AAAGTTATCA	0.976
AGATTCGAC	0.985
CTGGTGTCGT	0.968
TTTGCC	1.04
GCGTAGAAA	1.03
GGGTACATCG	1.04
TTGTGACCAT	1.07
AATGTATCTA	0.997
CCGAGCTGG	2.23
GATGTTTCCC	0.963
GGTCTCAATC	1.03

Sequence	switch fluorescence ratio
GGATCACTAC	1.1
CCGAAACCTT	3.75
ACCTGCTGAA	1.06
GTTGCCCATT	0.923
CAGCGTGTTA	1
CCTCGATCGG	0.993
GTCTCAGGGC	1.01
AGAATCATAA	0.973
ATTACGGCTA	1.08
GCTGAGTTAA	1.01
GCGGGGACAC	1.05
GAAATGGACG	1.08
TCGGTCGCAT	1.03
AAGCGGTAGT	0.954
GACTATTAAG	1
GTAATGCGTA	1.03
CGCTTTAAAT	1
TATAATTAA	0.944
GGAGTAATGG	3.23
GTTGATAGGG	0.979
GTTTGGACCA	1
GCGTAACATT	1.03
GAGTTTGCAA	1.27
TTGGACGTAT	1.09
TCGGTTTATT	1.08

Sequence	switch fluorescence ratio
GGGGAAAGAC	1.1
CTAGGGCGTG	0.972
CCTAAGTATT	1
GCGAAAAACT	3.92
AAACGAACT	1.2
TCAAGTAAAT	1.19
GGGCCATCAG	0.922
TTTCACCGCT	1.03
AGGTAGATAC	1.1
TGGAAGTAAG	0.985
AAGTCGTGTT	1.17
GCATAGTTTT	0.965
TGCTGGACAA	0.98
AGCGCCTTAG	1.03
ACATTGCCTA	0.974
CAGTTAGGGA	0.989
GTTCTAAAGG	1.01
AATTGGGGG	0.976
TTGTCGTCGA	1.02
GTCTTTTTAT	0.985
CAGAAGATGC	1
CAGACAATTT	1.03
TGTGAAGCGT	0.933
TCGACACCGC	1.34
TTGCTACCCT	1.1

Source: the supplement of paper PMC10126150
